# Laboratory results taken from the supplement of paper PMC8285479.
# Counter-ions that a name gives are not always drawn. ± gives the standard deviation of the averaged measurements. Whole data set: some 1,900 compounds, median “normalised cell viability (NPI; 0 = phenylarsine oxide control, 1 = DMSO control)” near 1, cut for the lowest 2% near 0.039. The list shows a part of the results.
# Tested on: NCI-H1944
# Assay: normalised cell viability (NPI; 0 = phenylarsine oxide control, 1 = DMSO control) (fraction of DMSO control); NCI-H1944 is a non-small cell lung cancer line; higher = more viable cells (less compound toxicity)
# Settings: 6 days
# [1] = glucocorticoid arm: hydrocortisone 2.75 uM co-treatment, compound 1 µM
# [2] = glucocorticoid arm: hydrocortisone 2.75 uM co-treatment, compound 5 µM
# [3] = glucocorticoid arm: hydrocortisone 2.75 uM pre-treated 2 days and continued, compound 1 µM
# [4] = glucocorticoid arm: hydrocortisone 2.75 uM pre-treated 2 days and continued, compound 5 µM
# [5] = glucocorticoid arm: vehicle, compound 1 µM
# [6] = glucocorticoid arm: vehicle, compound 5 µM
# 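Further: CTB read-out in 384-well plates, mean of triplicate wells, normalised per plate against 1 µM phenylarsine oxide and 0.1% DMSO, compounds added 24 h after seeding.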
SMILES,normalised cell viability [1],normalised cell viability [2],normalised cell viability [3],normalised cell viability [4],normalised cell viability [5],normalised cell viability [6]
NCC(=O)CCC(=O)O [Aminolevulinic acid hydrochloride; Aminolevulinic acid],1.04 ± 0.021,0.0671 ± 0.0064,1.023 ± 0.0058,0.486 ± 0.037,1.001 ± 0.0081,0.00332 ± 0.0013
COc1cc2c(cc1OC)[C@@H]1Cc3ccc(OC)c(OC)c3CN1CC2 [Rotundine],0.9957 ± 0.0045,1.03 ± 0.017,1.002 ± 0.0068,1.04,1.007 ± 0.0058,1.002 ± 0.0068
O=C(CCCN1CCC(O)(c2ccc(Cl)cc2)CC1)c1ccc(F)cc1 [Haloperidol],0.996 ± 0.013,0.93 ± 0.023,1.01,1.01 ± 0.025,0.9843 ± 0.0035,0.985 ± 0.002
O=c1[nH]c2cc(Cl)ccc2c(O)c1-c1cccc(Oc2ccccc2)c1,0.979 ± 0.02,0.978 ± 0.011,0.993 ± 0.028,1.02 ± 0.07,0.9737 ± 0.0021,0.991 ± 0.017
"COC(=O)[C@@H](N)Cc1ccc(O)c(O)c1 [L-3,4-Dihydroxyphenylalanine methyl ester hydrochloride]",0.9923 ± 0.0086,0.973 ± 0.015,0.9893 ± 0.004,0.952 ± 0.012,0.9893 ± 0.0064,0.982 ± 0.0027
COc1ccc2c(c1)c(CC(=O)O)c(C)n2Cc1ccc(Cl)cc1 [1-(4-Chlorobenzyl)-5-methoxy-2-methylindole-3-acetic acid],0.99 ± 0.011,1.02 ± 0.015,1.02 ± 0.01,1.01 ± 0.016,1.013 ± 0.0058,1.01
CC(N)(Cc1ccc(O)cc1)C(=O)O (racemic) [DL-alpha-Methyl-p-tyrosine],0.994 ± 0.0053,0.9897 ± 0.0074,1.01 ± 0.011,0.992 ± 0.025,0.9957 ± 0.0045,0.9913 ± 0.0064
COc1cc(C(=O)NC2CCN(C)CC2)ccc1Nc1ncc2c(n1)N(C1CCCC1)CC(F)(F)C(=O)N2C,0.354 ± 0.024,0.359 ± 0.031,0.73 ± 0.022,0.7627 ± 0.007,0.066 ± 0.0089,0.0695 ± 0.004
O=C(NCc1cccc(O)c1)Nc1nc(-c2ccncc2)cs1,0.994 ± 0.01,0.978 ± 0.021,1.01 ± 0.014,0.971 ± 0.035,0.984 ± 0.0069,0.816 ± 0.054
NCCS [Cysteamine hydrochloride],0.998 ± 0.011,0.961 ± 0.03,0.995 ± 0.014,0.985 ± 0.031,0.9837 ± 0.0058,0.988 ± 0.011
COCCOC(=O)C1=C(C)NC(C)=C(C(=O)OC(C)C)C1c1cccc([N+](=O)[O-])c1 (stereo not drawn) [Nimodipine],1.013 ± 0.0058,1.05 ± 0.021,1.01 ± 0.012,1.06 ± 0.074,0.991 ± 0.0072,1 ± 0.014
CN1C(C(=O)Nc2ccccn2)=C(O)c2ccccc2S1(=O)=O [Piroxicam],1.01,1.03 ± 0.034,1.023 ± 0.0058,0.893 ± 0.22,1.005 ± 0.0087,1.01 ± 0.011
CCN(CC)C(=O)c1ccc(O)c(OC)c1 [Vanillic acid diethylamide],0.999 ± 0.01,0.971 ± 0.02,1.002 ± 0.0072,0.977 ± 0.027,0.9923 ± 0.0051,0.992 ± 0.0035
NC1(C(=O)O)CC1 [1-Aminocyclopropanecarboxylic acid hydrochloride],0.983 ± 0.0082,1.01 ± 0.021,0.995 ± 0.002,0.997 ± 0.0042,0.9963 ± 0.004,1.001 ± 0.0081
O=C(c1ccc(F)cc1)C1CCN(CCn2c(=O)[nH]c3ccccc3c2=O)CC1 [Ketanserin],0.975 ± 0.023,0.976 ± 0.033,1 ± 0.0092,1.003 ± 0.0058,0.986 ± 0.01,0.9933 ± 0.0059
O=C(c1ccc(F)cc1)C1CCN(CCn2c(=O)[nH]c3ccccc3c2=O)CC1 [Ketanserin tartrate],1.02 ± 0.01,0.9957 ± 0.0038,1.02 ± 0.011,1.01 ± 0.011,1.01,1.01 ± 0.01
NC(=O)Nc1cc(-c2cccc(F)c2)sc1C(=O)N[C@H]1CCCNC1,0.65 ± 0.013,0.45 ± 0.024,0.93 ± 0.021,0.7733 ± 0.0071,0.338 ± 0.012,0.158 ± 0.015

SMILES,normalised cell viability [1],normalised cell viability [2],normalised cell viability [3],normalised cell viability [4],normalised cell viability [5],normalised cell viability [6]
Nc1nccc(Oc2ccc(NC(=O)c3c[nH]cc(-c4ccc(F)cc4)c3=O)cc2F)c1Cl,1.013 ± 0.0058,1.02 ± 0.033,1.033 ± 0.0058,1.03 ± 0.015,1.01,1.023 ± 0.0058
CC(=O)[C@@]1(O)CC[C@H]2[C@@H]3CCC4=CC(=O)CC[C@]4(C)[C@H]3CC[C@@]21C [17alpha-hydroxyprogesterone],1.007 ± 0.0058,0.9563 ± 0.0084,1 ± 0.031,1 ± 0.019,1 ± 0.0095,0.9933 ± 0.0032
Cl.N[C@@H](CCC(=O)O)C(=O)O [L-Glutamic acid hydrochloride],1.013 ± 0.0058,1 ± 0.029,1.013 ± 0.0058,0.989 ± 0.027,1.023 ± 0.0058,1.02 ± 0.01
O=C1NCC2(CCN(CCc3ccccc3)CC2)O1 [Fenspiride hydrochloride],1.01 ± 0.016,0.9663 ± 0.0074,0.998 ± 0.002,0.9877 ± 0.0093,0.9907 ± 0.0083,0.9977 ± 0.0011
Clc1ccc2c(c1)CCc1cccnc1C2=C1CCNCC1 [Desloratadine],1.01 ± 0.032,1.03 ± 0.017,1.02 ± 0.011,1.01 ± 0.032,0.9947 ± 0.005,0.9917 ± 0.0061
Nc1nc(NCCNc2ncc(-n3ccnc3)c(-c3ccc(Cl)cc3Cl)n2)ccc1[N+](=O)[O-],1.11 ± 0.01,1.2 ± 0.036,1.07 ± 0.011,1.11 ± 0.029,1.02 ± 0.01,1.047 ± 0.0058
CSC(=N)N [S-Methylisothiourea hemisulfate],0.994 ± 0.015,0.97 ± 0.016,0.996 ± 0.016,0.998 ± 0.071,0.994 ± 0.004,0.992 ± 0.0061
O=C1NC(=O)c2cc(Nc3ccccc3)c(Nc3ccccc3)cc21,1.01 ± 0.018,1.027 ± 0.0058,1.007 ± 0.0058,0.9975 ± 0.0035,1.006 ± 0.0063,1.017 ± 0.0058
CC(C)c1ccccc1Cc1cc(C(=O)Nc2ccc(S(=O)(=O)c3ccccc3C(C)(C)C)cc2)c(O)c(O)c1O,0.9933 ± 0.0099,0.826 ± 0.049,0.998 ± 0.014,0.961 ± 0.018,1.007 ± 0.0058,0.813 ± 0.033
Clc1cccc(Cl)c1NC1=NCCN1 [Clonidine HCl],1.017 ± 0.0058,1.04 ± 0.017,1.01 ± 0.025,1.05,1.006 ± 0.0063,1.003 ± 0.0058
Clc1cccc(Cl)c1NC1=NCCN1 [Clonidine hydrochloride],1.007 ± 0.0058,0.999 ± 0.019,0.9893 ± 0.0093,0.992 ± 0.026,0.9797 ± 0.0095,0.986 ± 0.001
CN(C)S(=O)(=O)c1ccc2c(c1)/C(=C/c1cc3c([nH]1)CCCC3)C(=O)N2,0.9813 ± 0.0042,0.837 ± 0.022,1.02 ± 0.052,1 ± 0.013,0.996 ± 0.0027,0.827 ± 0.039
CN1CCN(C2Cc3ccccc3Sc3ccc(Cl)cc32)CC1 (racemic) [(±)-Octoclothepin maleate],1.01 ± 0.011,0.9477 ± 0.0045,1.01 ± 0.015,1.05 ± 0.087,1 ± 0.0095,1 ± 0.011
N=C(N)NCCCCNC(=N)N [Arcaine sulfate],0.987 ± 0.012,0.994 ± 0.033,0.993 ± 0.0066,1.01 ± 0.038,0.987 ± 0.013,0.9957 ± 0.0045
CCCNC(=O)NS(=O)(=O)c1ccc(Cl)cc1 [Chlorpropamide],1.01 ± 0.011,1.01 ± 0.016,1.01,1.02 ± 0.014,0.998 ± 0.002,1.013 ± 0.0058
COc1ccc(-c2nc(N3CCOCC3)c3sc(CN(C)c4ncc(C(=O)NO)cn4)cc3n2)cn1,0.00442 ± 0.0038,0.00164 ± 0.00085,0.0384 ± 0.044,0.00149 ± 0.001,0.00371 ± 0.0034,0.000104 ± 0.00053
